Where a chain is given by its changes, count along the chain named. Names and notes keep the numbering of the source. Results are given in words; binding and its absence hold for the method and conditions named. Binding seen in cells or lysates may run through a third protein. Some results given as binding are weak or reduced against the parent protein; the word gives no strength. Where a sequence is shown, tags or fusion partners need not be part of it.
Molecular target: FLAG-tagged Tor2 kinase (S. pombe) (UniProt Q9Y7K2)
Experiment: co-IP; FLAG-Tor2 immunopurified from S. pombe cell lysate on anti-FLAG M2 affinity gel, 2 h at 4°C, washed with lysis buffer; co-purified Mip1-myc by immunoblot

Sequences of proteins named here, by UniProt entry; tags and fusion partners are left off.
UniProt Q9Y7K2: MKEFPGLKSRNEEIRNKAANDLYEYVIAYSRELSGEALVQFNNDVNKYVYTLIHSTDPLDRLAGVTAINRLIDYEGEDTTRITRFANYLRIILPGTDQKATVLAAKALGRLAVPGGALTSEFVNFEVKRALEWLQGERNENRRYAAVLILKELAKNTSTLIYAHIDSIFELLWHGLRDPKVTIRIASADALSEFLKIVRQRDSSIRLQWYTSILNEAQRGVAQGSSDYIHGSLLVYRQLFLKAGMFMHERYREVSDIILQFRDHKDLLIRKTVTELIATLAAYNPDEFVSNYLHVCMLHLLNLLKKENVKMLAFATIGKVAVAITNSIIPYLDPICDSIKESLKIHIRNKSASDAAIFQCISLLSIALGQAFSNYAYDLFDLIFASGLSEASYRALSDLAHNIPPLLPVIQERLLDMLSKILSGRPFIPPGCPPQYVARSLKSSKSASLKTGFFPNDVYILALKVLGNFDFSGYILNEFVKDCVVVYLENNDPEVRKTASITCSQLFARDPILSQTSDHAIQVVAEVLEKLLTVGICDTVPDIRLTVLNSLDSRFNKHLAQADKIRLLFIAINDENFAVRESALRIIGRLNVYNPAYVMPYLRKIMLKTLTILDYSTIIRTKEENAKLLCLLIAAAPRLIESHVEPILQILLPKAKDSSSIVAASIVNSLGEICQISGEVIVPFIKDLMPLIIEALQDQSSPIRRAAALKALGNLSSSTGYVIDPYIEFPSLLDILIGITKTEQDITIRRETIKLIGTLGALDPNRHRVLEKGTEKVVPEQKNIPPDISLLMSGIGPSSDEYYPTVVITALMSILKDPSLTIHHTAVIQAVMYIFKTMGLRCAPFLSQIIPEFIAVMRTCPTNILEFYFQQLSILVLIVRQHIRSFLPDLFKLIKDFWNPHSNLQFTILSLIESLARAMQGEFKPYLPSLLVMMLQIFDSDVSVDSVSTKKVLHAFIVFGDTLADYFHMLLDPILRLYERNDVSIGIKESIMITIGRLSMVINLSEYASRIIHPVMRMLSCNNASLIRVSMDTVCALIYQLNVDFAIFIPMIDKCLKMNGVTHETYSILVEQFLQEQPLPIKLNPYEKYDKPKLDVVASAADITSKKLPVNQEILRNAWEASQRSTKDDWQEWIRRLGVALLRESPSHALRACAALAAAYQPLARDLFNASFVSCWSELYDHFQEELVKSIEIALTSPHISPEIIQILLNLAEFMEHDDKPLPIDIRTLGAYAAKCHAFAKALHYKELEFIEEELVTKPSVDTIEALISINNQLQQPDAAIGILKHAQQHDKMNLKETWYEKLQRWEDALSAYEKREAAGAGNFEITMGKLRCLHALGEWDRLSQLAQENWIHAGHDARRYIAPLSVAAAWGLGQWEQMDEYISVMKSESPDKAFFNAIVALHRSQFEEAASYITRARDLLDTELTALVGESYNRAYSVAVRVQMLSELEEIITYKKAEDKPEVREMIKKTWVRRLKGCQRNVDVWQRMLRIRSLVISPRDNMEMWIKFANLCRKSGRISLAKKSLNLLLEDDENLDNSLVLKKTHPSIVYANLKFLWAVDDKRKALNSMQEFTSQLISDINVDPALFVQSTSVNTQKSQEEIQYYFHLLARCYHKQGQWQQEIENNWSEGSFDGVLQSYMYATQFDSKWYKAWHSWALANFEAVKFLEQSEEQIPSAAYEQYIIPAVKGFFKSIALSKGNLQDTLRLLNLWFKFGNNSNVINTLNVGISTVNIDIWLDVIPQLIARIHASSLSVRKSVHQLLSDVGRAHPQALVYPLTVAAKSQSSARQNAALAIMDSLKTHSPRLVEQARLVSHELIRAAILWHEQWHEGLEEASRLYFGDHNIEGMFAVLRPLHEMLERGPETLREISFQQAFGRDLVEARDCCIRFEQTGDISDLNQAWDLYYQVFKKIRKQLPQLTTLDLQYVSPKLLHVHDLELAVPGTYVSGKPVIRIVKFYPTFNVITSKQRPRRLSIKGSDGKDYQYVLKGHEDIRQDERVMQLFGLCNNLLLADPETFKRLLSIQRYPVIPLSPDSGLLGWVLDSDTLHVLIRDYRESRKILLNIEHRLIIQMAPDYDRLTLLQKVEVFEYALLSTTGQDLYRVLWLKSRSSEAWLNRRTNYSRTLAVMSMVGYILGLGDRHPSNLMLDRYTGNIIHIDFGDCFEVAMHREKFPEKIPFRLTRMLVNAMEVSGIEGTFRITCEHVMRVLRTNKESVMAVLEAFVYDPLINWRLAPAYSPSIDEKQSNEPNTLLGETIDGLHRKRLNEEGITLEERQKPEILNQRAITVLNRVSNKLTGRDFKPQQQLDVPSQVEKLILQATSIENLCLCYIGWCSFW

B1: Mip1-myc (wild type) (protein, UniProt P87141 1-1313)
chain: MNDRISEVSGSSRARRSVLSYGTTETGSDRYTENSNIATENGVDTASSMIDGIQSGFPQPRHGFEEEYNNAEYINMLEQVFYMYYTDKRHRGVISKKNAEPTETIHDWRMRERLKTVSAALLVCLNIGVDPPDVIKPNPAAKYECWIDPFSLPASKALEAIGKNLQQQYETLSMRTRYRHYLDPAIEEVKKLCIGQRRNAKEERILFHYNGHGVPMPTASGEIWVFNKNYTQYIPVSLYDLQSWLGAPCIYVYDCSAAGNIIVNFNRFAEQRDKEALRIAKQNPNVLAMPSHTSCIQLAACGPKETLPMNPDLPADLFTSCLTSPIEISVRWYVLQNPFPNKLNLNMLLKIPGRLQDRRTPLGELNWIFTAITDTIAWNVFPKHLFRRLFRQDLMVAALFRNFLLAERIMLVHSCHPQSSPELPPTHDHPMWNSWDLAIDNCLSQLPDMLDAESKGIAYEYKHSTFFSEQLTAFEVWLSQGLISRKPPDQLPLVLQVLLSQVHRLRALILLSKFLDLGVWAVDLALSIGIFPYVLKLLQSPAIELKPVLVFIWARILAVDDSCQADLLKDNGYGYFVQILNPNSSIFPSSNISEHRAMCAFILSVFCRGFPQGQLACLNPQVLSHCLSHLNSPDSLLRQWACLCISQLWENYSEAKWSGTRDNAHVKLAEIIVDSVPEVRASVLTAFTTFLGFPEKTEEVVAVETYIAIAALAALSDASPLVRHELVIFLSHFVVNYKKQLMVVAYESSLADILEKKNHNSISASTIYETVWQAVLVLAADPSIEISLAAEAIINYVYQSMLNSELRESFLAFLLQHLPALHKASLSKDTDTNSVTSDPKPHPFVPSVSENKILNRSFSLTRSLKGLALSLAGSDRASELLSLNGENKPAESNLNHLTSAKVPGPPAFNELEYQSELDMPLTSYLFDWSRKYFTEPQMRPNEDDEPGSICYNQRLWRRNRNEKLIYRTRPLAEYSTNGRWNQQLMTFNNTIAPRKLMFHQFEDQLITLGDKDIIQVWDWRRNRCLNSFKTSASATTNVTDMQLLNEDDVALLMTGSSDGTIKLYRDYENEKVELVTSWNSLSDLVFGDRNASLLMSWQQNCGHLLVAGDVRVIRIWDASKEICYANLPVRSSNSITSLTSDLVGCNIIVAGFSDGVLRVYDKRLPARDSLTDVWKEHSSEIVNVEMQSSGMRELISASSDGEVKLWDIRMNHSLQTFSTDNSGLTSLTVHSHAPVYATGSSNQSIKIWDTLGQNINTFRENPRFLNQPKPSSLMCLKFHPHHLLLACGDNTDSRVNLYSCTKNEIHTDSPNEF
  binding: binds

B2: Mip1-Y533A-myc (protein, UniProt P87141 1-1313)
chain: B1 chain with Y533A
  binding: binds

B3: Mip1-R358A-myc (protein, UniProt P87141 1-1313)
chain: B1 chain with R358A
  binding: binds

B4: Mip1-R504A-myc (protein, UniProt P87141 1-1313)
chain: B1 chain with R504A
  binding: binds

Source: PMC8542387 (2021)
